# PubChem BioAssay AID504706 (National Center for Advancing Translational Sciences (NCATS), 2011)
# Screen size: about 320,000 compounds; about 200 (0.062%) were called active. Inconclusive means that the source gave no clear call. Such entries were picked first, then a sample of the others. Calls come from the whole dose curve; as a rule, active = well fitted activation curve with a large enough effect; inconclusive = small, poorly fitted or top-dose-only effect; inactive = no such curve, though single readings can be large or run the other way. No potency is given beside an inconclusive call; the fits are too rough.
# Assay: qHTS assay for re-activators of p53 using a Luc reporter; note: nearly all actives have a fitted effect of over 45% in size
# Conditions: H1299 p53-A138V BP100-luciferase reporter, luminescence, 24 h; series mostly up to 92.2 µM
# Summary of the method: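 H1299 (p53-null), stable ts p53-A138V + BP100-Luc; 1000 cells/well, Opti-MEM/10% FBS; cpd 4 pt, 1:5; 24 h, 37 deg C, 5% CO2; detection reagent 10 min RT; luminescence.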
# Potency is the fitted concentration of half-maximal effect; tags give direction and shape of the fitted curve.
row,SMILES,Potency
1,O=C(Nc1ccc(-c2noc(CCc3ccccc3)n2)cc1)c1ccco1,"inconclusive [activator, partial curve, poor fit]"
2,Cc1ccc(C(=O)OCC(=O)c2c[nH]c3ccccc23)cc1S(=O)(=O)N1CCCCC1,inactive
3,O=C(NNC(=S)Nc1ccc(Cl)cc1)c1ccccc1OC(F)F,"inconclusive [activator, partial curve]"
4,CCCCC(=O)Nc1ccc(C(=O)NN2C(=O)c3ccccc3C2=O)cc1,"inconclusive [activator, single point]"
5,COc1ccccc1Nc1nc(C)c(C(=O)Nc2ccccc2)s1,inactive
6,O=C(Nc1cccc(-c2cnc3ccccc3n2)c1)c1ccc(Cl)cc1,"inconclusive [activator, single point]"
7,C/C(=N\O)c1cc(Cl)cc(Cl)c1O,inactive
8,CC(C)(C)C(=O)Nc1ccc(C(=O)COC(=O)C2CC2)cc1,"inconclusive [activator, partial curve, poor fit]"
9,CCCN1CCN(C(=O)Cn2nc(C)n3c(cc4sccc43)c2=O)CC1,inactive
10,Cc1ccc(/C=N/NC(=O)C(NC(=O)c2ccccc2)c2n[nH]c(=O)c3ccccc23)cc1 (configuration not stated),"inconclusive [activator, partial curve, poor fit]"
11,Cc1ccccc1OCC(=O)NC(=S)Nc1ccccc1N1CCN(S(C)(=O)=O)CC1,inactive
12,COc1cccc(NC(=O)C(=O)N2CCOCC2)c1,"inconclusive [activator, partial curve, poor fit]"
13,CC1CCN(c2ccc(NC(=O)c3cccnc3)cc2)CC1,"inconclusive [activator, partial curve, poor fit]"
14,CCc1ccc(NC(=O)c2ccc3c(c2)C(=O)N(CCOC)C3Nc2ccc(CC)cc2)cc1 (configuration not stated),"inconclusive [activator, partial curve, poor fit]"
15,O=C(c1ccncc1)N1CCN(S(=O)(=O)c2cccc(Cl)c2)CC1,inactive
16,CC1(C)OC(=O)C(=NNc2ccc(O)cc2)C(=O)O1,"inconclusive [activator, single point]"
17,CC(NCc1ccc(F)cc1)C(=O)Nc1cc(S(=O)(=O)N2CCCCC2)ccc1Cl (configuration not stated),inactive
18,CSCC(=O)NCC1(N(C)Cc2ccccc2)Cc2ccccc2C1,inactive
19,CCN1C(=O)[C@H]2[C@H]3CN=C(SCC4CC4)N3[C@@](CC)(C(=O)OC)[C@H]2C1=O,inactive
20,C/C(=N\NC(=O)c1ccccc1[N+](=O)[O-])c1c(O)cc(C)oc1=O,inactive
21,COc1cccc(NC(=O)c2ccnc(N3CCC(C(=O)NCc4ccccc4OC)CC3)c2)c1,"inconclusive [activator, single point]"
22,CC(=O)c1c(C)[nH]c(C(=O)CSc2nnc3ccccn23)c1C,"inconclusive [activator, partial curve, poor fit]"
23,Cc1ccc(-c2cnc3ccccc3n2)cc1C,"inconclusive [activator, partial curve, poor fit]"

row,SMILES,Potency
1,O=C(Cc1ccccc1[N+](=O)[O-])Nc1ccc2c(c1)OCCO2,"inconclusive [activator, partial curve, poor fit]"
2,Cc1ccc(CNS(=O)(=O)c2c(C)[nH]c(C)c2C(=O)N2CCCCC2)o1,inactive
3,Cn1cccc1C(=O)C(=O)Nc1ccccc1C(F)(F)F,"inconclusive [activator, full curve, poor fit]"
4,O=C(COC(=O)CCSc1ccccc1)NCc1ccccc1Cl,"inconclusive [activator, full curve, poor fit]"
5,CC(C(=O)N1CCN(c2ccc(Cl)cc2)CC1)c1ncc(C(F)(F)F)cc1Cl (configuration not stated),inactive
6,CCOC(=O)c1ccc(NCc2cccnc2)cc1,"inconclusive [activator, single point]"
7,COc1ccc(C(=O)n2c(SC)nc3cc4c(cc32)OCCO4)cc1,"inconclusive [activator, full curve, poor fit]"
8,Cc1cc(NCc2ccccn2)n2ncc(-c3ccc(Cl)cc3)c2n1,"inconclusive [activator, partial curve, poor fit]"
9,COc1ccc(-c2cc(C(=O)N3CCN(c4ccccc4)CC3)no2)cc1,"inconclusive [activator, partial curve, poor fit]"
10,Cc1cc(C)c(C(N)=O)c(Nc2cccc(Cl)c2C)n1,"inconclusive [activator, partial curve]"
11,COc1ccccc1NC(=O)c1ccc2nsnc2c1,"inconclusive [activator, full curve, poor fit]"
12,COc1ccc(/C=C/c2nc(-c3ccccc3O)n[nH]2)cc1OC,"inconclusive [activator, full curve, poor fit]"
13,Fc1ccc(COc2ccc(Br)cc2CNCc2ccncc2)cc1,inactive
14,CCOC(=O)c1cccc(Nc2nc(C)cc(C)n2)c1,"inconclusive [activator, single point]"
15,Clc1ccc(-n2ncc3c(NCCN4CCOCC4)ncnc32)cc1,"inconclusive [activator, partial curve, poor fit]"
16,Cc1ccc(COc2ccc(C(=O)NN)cc2)cc1,"inconclusive [activator, single point]"
17,COc1ccccc1-c1nc(-c2cccc(C)c2)no1,"inconclusive [activator, partial curve, poor fit]"
18,CS(=O)(=O)c1ccc2nc(NC(=O)C3COc4ccccc4O3)sc2c1 (configuration not stated),"inconclusive [activator, partial curve, poor fit]"
19,C/C(=N/NC(=O)c1cccs1)c1ccco1,"inconclusive [activator, partial curve, poor fit]"
20,Cc1ccc(Nc2nc(COC(=O)COc3ccc(C=O)cc3)cs2)cc1,"inconclusive [activator, partial curve, poor fit]"
21,Cc1cc(-n2c(C)cc(C(=O)CSc3ccccn3)c2C)no1,"inconclusive [activator, partial curve, poor fit]"
22,C=CCn1c(-c2ccc(N)cc2)nc2ccccc21,"inconclusive [activator, full curve, poor fit]"
23,CC(C)Oc1ccc(Nc2ncnc3ccccc23)cc1,inactive

row,SMILES,Potency
1,COc1cc(/C=N/Nc2nn3cnnc3c3ccccc23)cc(OC)c1OC,"inconclusive [activator, single point]"
2,Cc1cc(NC(=O)/C=C/c2ccccc2)no1,"inconclusive [activator, full curve, poor fit]"
3,Fc1cccc(CSc2ccc(-c3ccco3)nn2)c1,"inconclusive [activator, full curve, poor fit]"
4,CN1C2CCC1/C(=C/c1cccn1C)C(=O)/C2=C\c1cccn1C,inactive
5,COc1ccc2nc(Nc3sc4c(c3C(N)=O)CCCC4)sc2c1,"inconclusive [activator, partial curve, poor fit]"
6,O=C(CSc1nc2ncccc2[nH]1)c1ccc(F)cc1,"inconclusive [activator, single point]"
7,CCS(=O)(=O)NCc1csc(-c2ccccc2)n1,"inconclusive [activator, full curve, poor fit]"
8,CCOC(=O)Nc1nc2ccccc2s1,"inconclusive [activator, partial curve, poor fit]"
9,O=C(O)c1cc(N/N=C/c2ccc(OCc3ccccc3)cc2)ccc1Cl,inactive
10,COCCNC(=O)c1ccc2c(c1)S(=O)(=O)c1cc(Cl)ccc1C2=O,"inconclusive [activator, single point]"
11,Cc1cc(O)ccc1-c1cnc2ccccc2n1,"inconclusive [activator, partial curve, poor fit]"
12,CC(/C=C/c1ccccc1)=N\NC(N)=S,"inconclusive [activator, partial curve, poor fit]"
13,O=C(NC1CC1)c1sc2cc(F)ccc2c1Cl,"inconclusive [activator, single point]"
14,CC(=O)Oc1ccc(C(=O)Cc2ccccn2)c(O)c1,inactive
15,CCOCCCn1c(C)nc2c(c1=O)c1nc3ccccc3nc1n2-c1ccc(C)cc1,"inconclusive [activator, single point]"
16,Brc1ccc(-c2nc(-c3ccncc3)no2)o1,"inconclusive [activator, partial curve, poor fit]"
17,COc1ccc(OCc2cc(C(=O)N(C)Cc3cc(C)no3)no2)c(Cl)c1,"inconclusive [activator, partial curve, poor fit]"
18,Nc1c(C(=O)c2ccccc2)sc2nsc(SCCN3CCCC3)c12,"inconclusive [activator, full curve, poor fit]"
19,N#Cc1cccc(NCC(=O)Nc2ccc3c(c2)OCCO3)c1,"inconclusive [activator, partial curve, poor fit]"
20,COc1ccc2nc(SCC(=O)c3ccco3)[nH]c2c1,"inconclusive [activator, single point]"
21,COc1ccccc1N1CCN(C(=O)c2ccc(-c3ccccc3)cc2)CC1,"inconclusive [activator, single point]"
